Source: article PMC10244618
Results are given in words; binding and its absence hold for the method and conditions named. Some binding calls cover weakened binding; strength is not graded here.

Amino acid sequences for entries named in this document (tags omitted). A change or cut given only in a name is not applied to a line headed by its entry. Chains listed by the source or under a name are the forms on record and can include a tag or linker. Residues count along the entry.
UniProt Q9Y6C2: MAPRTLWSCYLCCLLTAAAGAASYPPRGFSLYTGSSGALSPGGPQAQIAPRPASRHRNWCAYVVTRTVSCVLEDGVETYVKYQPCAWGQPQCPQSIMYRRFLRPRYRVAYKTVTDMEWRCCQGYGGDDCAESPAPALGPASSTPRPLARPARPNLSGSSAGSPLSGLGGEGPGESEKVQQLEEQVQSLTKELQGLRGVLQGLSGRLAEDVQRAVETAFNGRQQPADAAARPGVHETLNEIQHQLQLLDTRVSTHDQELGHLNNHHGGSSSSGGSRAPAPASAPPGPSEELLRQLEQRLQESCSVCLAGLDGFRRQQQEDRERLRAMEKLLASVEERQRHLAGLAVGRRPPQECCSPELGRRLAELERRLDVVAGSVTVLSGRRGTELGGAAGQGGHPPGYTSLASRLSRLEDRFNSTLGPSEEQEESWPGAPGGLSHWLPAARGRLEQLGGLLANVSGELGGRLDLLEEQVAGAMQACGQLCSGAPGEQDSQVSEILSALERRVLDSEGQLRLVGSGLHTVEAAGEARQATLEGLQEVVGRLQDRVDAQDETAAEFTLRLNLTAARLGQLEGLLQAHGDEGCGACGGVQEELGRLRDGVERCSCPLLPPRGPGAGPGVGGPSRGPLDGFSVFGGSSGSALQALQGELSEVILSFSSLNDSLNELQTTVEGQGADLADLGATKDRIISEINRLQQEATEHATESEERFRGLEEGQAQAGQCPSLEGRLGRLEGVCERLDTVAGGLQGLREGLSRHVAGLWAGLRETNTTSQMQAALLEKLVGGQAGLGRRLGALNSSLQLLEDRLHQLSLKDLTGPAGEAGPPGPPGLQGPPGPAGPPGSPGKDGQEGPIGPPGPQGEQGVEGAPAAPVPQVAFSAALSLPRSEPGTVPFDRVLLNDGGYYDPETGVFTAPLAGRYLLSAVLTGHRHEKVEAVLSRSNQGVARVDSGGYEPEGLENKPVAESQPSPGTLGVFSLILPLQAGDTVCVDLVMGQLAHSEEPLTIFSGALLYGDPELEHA
UniProt P35240: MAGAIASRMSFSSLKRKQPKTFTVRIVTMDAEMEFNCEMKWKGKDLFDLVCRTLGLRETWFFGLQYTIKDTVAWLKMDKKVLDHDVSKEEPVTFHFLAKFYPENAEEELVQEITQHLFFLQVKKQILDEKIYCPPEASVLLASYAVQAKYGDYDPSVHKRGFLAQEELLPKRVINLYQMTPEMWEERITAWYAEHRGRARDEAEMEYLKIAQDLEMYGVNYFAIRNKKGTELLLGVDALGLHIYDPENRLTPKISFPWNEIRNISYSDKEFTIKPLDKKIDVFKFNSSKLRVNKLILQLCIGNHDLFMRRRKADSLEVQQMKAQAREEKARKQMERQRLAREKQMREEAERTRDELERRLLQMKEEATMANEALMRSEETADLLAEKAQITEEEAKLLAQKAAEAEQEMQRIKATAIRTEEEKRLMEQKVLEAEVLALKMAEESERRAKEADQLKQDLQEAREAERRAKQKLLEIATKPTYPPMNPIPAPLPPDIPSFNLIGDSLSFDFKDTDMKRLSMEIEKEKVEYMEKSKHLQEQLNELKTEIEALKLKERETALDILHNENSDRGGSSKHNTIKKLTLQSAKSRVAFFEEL
NF2 C-terminal half of isoform 1 (AA M308-595): residues 308-595 of P35240
NF2 isoform 7, full length (P35240-4, form named): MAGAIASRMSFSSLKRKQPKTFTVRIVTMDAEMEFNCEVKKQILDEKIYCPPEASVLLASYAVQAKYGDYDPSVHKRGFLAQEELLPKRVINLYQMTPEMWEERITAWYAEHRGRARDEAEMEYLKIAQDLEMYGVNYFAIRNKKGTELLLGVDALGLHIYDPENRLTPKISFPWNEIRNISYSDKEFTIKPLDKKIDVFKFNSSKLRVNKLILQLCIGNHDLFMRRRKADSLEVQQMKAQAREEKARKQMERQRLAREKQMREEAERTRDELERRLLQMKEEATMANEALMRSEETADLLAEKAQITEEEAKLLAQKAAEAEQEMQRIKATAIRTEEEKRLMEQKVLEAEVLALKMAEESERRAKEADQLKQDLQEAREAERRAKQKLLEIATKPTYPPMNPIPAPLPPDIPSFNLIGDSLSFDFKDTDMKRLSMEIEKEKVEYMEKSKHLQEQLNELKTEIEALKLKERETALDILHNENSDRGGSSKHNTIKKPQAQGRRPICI
NF2 isoform 7 with an exon 17 derived C-terminus (P35240-1, form named): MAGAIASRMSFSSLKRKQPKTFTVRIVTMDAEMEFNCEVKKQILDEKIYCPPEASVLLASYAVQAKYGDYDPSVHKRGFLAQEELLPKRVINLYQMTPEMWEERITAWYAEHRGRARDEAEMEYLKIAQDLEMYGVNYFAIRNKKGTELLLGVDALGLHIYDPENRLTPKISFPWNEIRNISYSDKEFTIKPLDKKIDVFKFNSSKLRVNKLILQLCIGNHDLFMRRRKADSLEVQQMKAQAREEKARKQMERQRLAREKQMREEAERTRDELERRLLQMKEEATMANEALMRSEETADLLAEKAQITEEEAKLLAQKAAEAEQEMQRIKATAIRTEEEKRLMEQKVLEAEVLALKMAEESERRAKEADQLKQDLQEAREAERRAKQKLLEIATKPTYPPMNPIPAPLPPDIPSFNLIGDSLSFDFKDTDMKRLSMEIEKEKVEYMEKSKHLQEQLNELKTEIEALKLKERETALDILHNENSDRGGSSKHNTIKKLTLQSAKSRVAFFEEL
NF2 N-terminal half of isoform 7 (AA 1-K249) (P35240-4, form named): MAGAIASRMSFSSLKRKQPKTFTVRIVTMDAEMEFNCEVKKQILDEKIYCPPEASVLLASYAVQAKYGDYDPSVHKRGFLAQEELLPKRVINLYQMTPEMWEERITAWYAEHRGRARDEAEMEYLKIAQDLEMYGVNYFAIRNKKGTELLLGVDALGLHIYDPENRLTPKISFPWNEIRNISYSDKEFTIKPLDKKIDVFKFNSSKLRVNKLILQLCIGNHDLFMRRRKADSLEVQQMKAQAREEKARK
NF2 C-terminal half of isoform 7 (AA M225-507) (P35240-4, form named): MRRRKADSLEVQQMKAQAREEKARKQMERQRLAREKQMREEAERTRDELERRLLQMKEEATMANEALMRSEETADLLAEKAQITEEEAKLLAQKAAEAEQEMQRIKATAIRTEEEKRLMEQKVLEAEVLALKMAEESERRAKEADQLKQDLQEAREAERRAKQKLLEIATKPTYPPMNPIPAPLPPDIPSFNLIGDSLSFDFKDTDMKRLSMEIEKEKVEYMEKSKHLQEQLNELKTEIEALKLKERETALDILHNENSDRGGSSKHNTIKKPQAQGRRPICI

How the values were obtained:
[1] = molecular target: elastin microfibril interfacer 1 protein (human) (UniProt Q9Y6C2); assay: two-hybrid; Y2H mapping matrix (Fig S1B), reverse bait-prey configuration of Fig 1B: NF2 N- and C-terminal halves as prey; growth on selective agar; with active ABL2 where the kinase mattered
[2] = molecular target: NF2 isoform 7, full length (human) (UniProt P35240); assay: two-hybrid; pair-wise Y2H colony assay, 384 plate format (Figs 3A, S3): single-site NF2 variants in isoform 1 and isoform 7 as bait, WT partners as prey, in duplicate, with active ABL2 and with inactive ABL2KD
[3] = molecular target: NF2 isoform 7, full length (human) (UniProt P35240); assay: two-hybrid; Y2H colony matrix (Fig 1B): NF2 constructs as bait, partners as prey; growth of diploid yeast on selective agar; each pair tested with active tyrosine kinase ABL2 and with kinase-dead ABL2KD (K35M) co-expressed
[4] = molecular target: NF2 isoform 7 with an exon 17 derived C-terminus (human) (UniProt P35240); assay: as above
[5] = molecular target: NF2 N-terminal half of isoform 7 (AA 1-K249) (human) (UniProt P35240); assay: as above
[6] = molecular target: NF2 (moesin–ezrin–radixin-like [MERLIN] tumor suppressor) isoform 1, full length (human) (UniProt P35240); assay: as above
[7] = molecular target: phosphoinositide-3-kinase regulatory subunit 3 (human) (UniProt Q92569); assay: two-hybrid; Y2H mapping matrix (Fig S1B), reverse bait-prey configuration of Fig 1B: NF2 N- and C-terminal halves as prey; growth on selective agar; with active ABL2 where the kinase mattered
[8] = molecular target: phosphoinositide-3-kinase regulatory subunit 3 (human) (UniProt Q92569); assay: condition: only without active tyrosine kinase ABL2; two-hybrid; as a3 (Fig S1B), without active tyrosine kinase ABL2
[9] = molecular target: NF2 isoform 1 S265L (human) (UniProt P35240); assay: two-hybrid; pair-wise Y2H colony assay, 384 plate format (Figs 3A, S3): single-site NF2 variants in isoform 1 and isoform 7 as bait, WT partners as prey, in duplicate, with active ABL2 and with inactive ABL2KD
[10] = molecular target: NF2 isoform 1 S518D (human) (UniProt P35240); assay: two-hybrid; Y2H colony matrix (Fig 1B): NF2 constructs as bait, partners as prey; growth of diploid yeast on selective agar; each pair tested with active tyrosine kinase ABL2 and with kinase-dead ABL2KD (K35M) co-expressed
[11] = molecular target: NF2 isoform 7, full length (human) (UniProt P35240); assay: two-hybrid; reverse Y2H strains (RBait_S3 / RPrey_S3): interacting pairs repress growth on agar lacking adenine; NF2-Iso7 as bait (pBTM116-D9), WT partners as prey; 30°C; PIK3R3 with ABL2
[12] = molecular target: NF2 isoform 7, full length (human) (UniProt P35240); assay: condition: only without active ABL2 (kinase-dead ABL2KD co-expressed); two-hybrid; as a1 (Fig 1B), result with kinase-dead ABL2KD (K35M) only, no active tyrosine kinase
[13] = molecular target: NF2 isoform 7 with an exon 17 derived C-terminus (human) (UniProt P35240); assay: two-hybrid; as a1 (Fig 1B), result with kinase-dead ABL2KD (K35M) only, no active tyrosine kinase

Row | Substance | binding [1] | binding [2] | binding [3] | binding [4] | binding [5] | binding [6] | binding [7] | binding [8] | binding [9] | binding [10] | binding [11] | binding [12] | binding [13]
1 | NF2 C-terminal half of isoform 7 (AA M225-507) (from UniProt P35240-4 225-507) (domain or fragment) | binds | – | binds | binds | no binding | no binding | – | – | – | – | – | – | –
2 | phosphoinositide-3-kinase regulatory subunit 3 (from UniProt Q92569 1-461) | – | binds weakly | binds | binds | binds | no binding | binds | no binding | – | – | binds | no binding | binds weakly

Second part, the substance after the results:

Row | binding [1] | binding [2] | binding [3] | binding [4] | binding [5] | binding [6] | binding [7] | binding [8] | binding [9] | binding [10] | binding [11] | binding [12] | binding [13] | Substance
3 | binds | binds weakly | binds | binds | no binding | no binding | – | – | – | – | – | – | – | NF2 C-terminal half of isoform 1 (AA M308-595) (from UniProt P35240-1 308-595) (domain or fragment)
4 | – | – | – | – | – | – | binds | no binding | – | – | – | – | – | NF2 N-terminal half of isoform 7 (AA 1-K249) (from UniProt P35240-4 1-249) (domain or fragment)
5 | binds | binds | binds | binds | – | no binding | – | – | binds | binds weakly | binds | – | – | elastin microfibril interfacer 1 protein (from UniProt Q9Y6C2 1-1016)
